Test results taken from PMC4336329 (PLoS ONE, 2015).
Screen size: about 310,000 compounds; about 2,200 (0.71%) showed an effect of 50% or more. Effects have a minus sign here. The list shows a part of the results.

target: human ether-à-go-go-related gene (hERG) potassium channel (human, UniProt Q12809); assay: primary screen, population patch clamp on CHO cells stably expressing hERG
Sequence (Q12809 whole entry, looked up): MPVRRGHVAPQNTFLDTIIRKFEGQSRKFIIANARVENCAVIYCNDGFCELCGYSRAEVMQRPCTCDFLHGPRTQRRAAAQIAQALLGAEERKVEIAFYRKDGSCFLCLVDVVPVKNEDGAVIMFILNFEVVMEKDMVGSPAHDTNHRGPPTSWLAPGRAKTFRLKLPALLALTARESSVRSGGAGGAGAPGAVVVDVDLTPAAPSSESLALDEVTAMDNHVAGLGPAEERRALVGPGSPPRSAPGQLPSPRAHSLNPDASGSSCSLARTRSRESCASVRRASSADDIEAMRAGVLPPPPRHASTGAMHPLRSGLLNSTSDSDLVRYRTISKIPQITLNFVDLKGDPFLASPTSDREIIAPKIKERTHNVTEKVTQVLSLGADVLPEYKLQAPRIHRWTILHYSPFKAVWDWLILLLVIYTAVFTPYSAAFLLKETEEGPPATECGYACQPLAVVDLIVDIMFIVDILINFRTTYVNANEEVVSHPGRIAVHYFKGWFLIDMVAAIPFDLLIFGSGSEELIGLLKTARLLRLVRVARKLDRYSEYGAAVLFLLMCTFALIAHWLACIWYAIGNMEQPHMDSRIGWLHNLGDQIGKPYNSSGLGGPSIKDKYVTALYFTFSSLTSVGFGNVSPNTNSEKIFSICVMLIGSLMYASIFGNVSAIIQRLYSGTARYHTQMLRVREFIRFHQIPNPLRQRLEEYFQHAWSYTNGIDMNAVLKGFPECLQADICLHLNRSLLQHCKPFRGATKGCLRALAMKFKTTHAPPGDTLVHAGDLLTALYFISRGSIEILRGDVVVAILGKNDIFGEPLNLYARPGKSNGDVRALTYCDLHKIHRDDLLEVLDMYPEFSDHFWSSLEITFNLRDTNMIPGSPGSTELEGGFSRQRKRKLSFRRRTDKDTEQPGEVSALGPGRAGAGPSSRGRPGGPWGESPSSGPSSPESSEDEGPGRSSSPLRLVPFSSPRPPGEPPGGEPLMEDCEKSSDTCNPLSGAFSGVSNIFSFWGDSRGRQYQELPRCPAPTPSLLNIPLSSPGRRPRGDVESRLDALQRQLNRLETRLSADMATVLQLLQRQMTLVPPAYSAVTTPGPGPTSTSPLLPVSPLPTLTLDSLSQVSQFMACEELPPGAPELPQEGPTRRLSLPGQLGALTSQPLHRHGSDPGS

Structure (SMILES) | hERG current change (%, negative = inhibition) at 1uM [%]
Cc1ccc(NC(=O)Cn2nc(-c3ccco3)ccc2=O)cc1Cl | 14.3
COc1cccc(C(=O)NC(=O)Nc2cc(C)on2)c1 | 10.3
CCN(C(=O)C1CCN(S(=O)(=O)c2cccc3nonc23)CC1)c1ccccc1 | 10.6
CSc1cccc(NC(=O)COc2ccccc2)c1 | -2.44
Cc1ccccc1N/C=C/C(=C(C#N)C#N)N(C)C | 7.2
Cc1ccc(NC(=O)CSCc2cc(=O)n3ccsc3n2)cc1 | 11.1
Cc1ccc(OCCC(=O)OCC(=O)Nc2cc(C)nn2-c2ccccc2)cc1 | -2.61
CN(CC1CCCCO1)C(=O)c1cc(COc2ccc(F)cc2Cl)on1 (stereo not shown) | -74.4
Nc1nc(CC(=O)CSc2ccc(Cl)cc2)nc(Nc2ccc(F)cc2)n1 | 15.9
O=C(Nc1c2c(nn1-c1ccc(F)cc1)CS(=O)(=O)C2)c1ccc2c(c1)OCO2 | -0.113
COc1ccc(-n2c(-c3ccc(Cl)cc3)c[n+]3c2CCCCC3)cc1.[Br-] | 8.19
Cc1cc(C(=O)N2CC(C)CC(C)C2)n(-c2ccccc2)n1 (stereo not shown) | 16.6
CN(C(=O)CC1C(=O)NCCN1Cc1ccccc1C(F)(F)F)C1CCOCC1 (stereo not shown) | 14.8
CC(=O)c1cn(Cc2ccccc2)c(=O)n(Cc2ccc(F)cc2)c1=O | 11
CCCSc1ccc([C@H]2N[C@@](Cc3ccccc3)(C(=O)OC)[C@H]3C(=O)N(CC)C(=O)[C@@H]23)cc1.O=C(O)C(F)(F)F | -4.21
NC(=O)C1CCN(C(=O)COc2ccc3ccccc3c2)CC1 | 27.9
COc1ccc(OC)c(-c2cc(C(=O)Nc3c(C)n(C)n(-c4ccccc4)c3=O)no2)c1 | 5.21
CC(=O)c1ccc(N2CCN(c3ccc(C(N)=O)cc3[N+](=O)[O-])CC2)cc1 | -2.91
CCOC(=O)N1CCN(S(=O)(=O)c2c(C)nc3sccn3c2=O)CC1 | 19.3
Cc1cccc(-n2c(C)cc(/C=N/n3cnnc3)c2C)c1 | 5.91
CN(c1ccccc1)S(=O)(=O)c1ccc(C(=O)N2CCCC2)cc1 | 12.2
O=C(NCCc1c[nH]c2ccccc12)OCCSS(=O)(=O)[O-].[Na+] | 11.1

Structure (SMILES) | hERG current change (%, negative = inhibition) at 1uM [%]
Nc1cccc(Oc2ccc3c(c2)C(=O)NC3=O)c1 | 7.89
Cc1ccc(Sc2ncccc2COC(=O)NC(C)C)cc1 | 12.6
CC(C)CCNC(=O)NC(=O)COC(=O)CNC(=O)C1CCCCC1 | 8.56
CCCCN1CNC(=S)N(CCc2ccccc2)C1 | -3.18
Cc1ccc(-n2ncc3c(=O)n(CC(=O)NCC4CCCO4)cnc32)cc1 (stereo not shown) | 5.75
Cc1ccc(NC(=O)COc2ccc(-c3nnco3)cc2)cc1S(=O)(=O)N1CCOCC1 | 4.98
CCOC(=O)C1CSC(CC(=O)Nc2ccc(OC(F)(F)F)cc2)C(=O)N1 (stereo not shown) | -12
COC(=O)N/N=C(/c1ccccc1)C1CCCCC1 | 14.7
O=C(COc1ccc(S(=O)(=O)N2CCOCC2)cc1)NCCN1CCOCC1 | 13.5
Cc1cccc(NC(=O)C2CCN(S(=O)(=O)c3c(C)noc3C)CC2)c1 | 5.23
CCN(CC)S(=O)(=O)c1ccc(C(=O)NCCSc2c[nH]c3ccccc23)cc1 | -4.65
CCOC(=O)c1ccc(NC(=S)NC2CCCC2)cc1 | 14.1
CCC(C(=O)NCCCN(CC)Cc1ccccc1)n1nc(C)c2sc3ccccc3c2c1=O (stereo not shown) | -32.3
CCCCN(C(=O)CCCc1nc2ccccc2c(=O)[nH]1)c1c(N)n(CCCC)c(=O)[nH]c1=O | 16.7
N/C(=N\OC(=O)Cc1ccccc1)c1cccnc1 | -9.03
On1ccccc1=S | 13.3
Cc1cc(C(C)(C)C)oc1C(=O)N(CC(=O)NC1CCCC1)Cc1ccccc1 | 14.3
Cl.Nc1nonc1C(=O)NCCNCc1ccccc1OCc1ccc(F)cc1 | -9.35
Nc1nonc1-n1nnc(C(=O)N/N=C/c2ccncc2)c1CSc1ccc(Cl)cc1 | 36.7
Oc1ccc(N2CCN(Cc3c(-c4ccccc4)nc4ccccn34)CC2)cc1 | -0.183
CCNC(=S)N1CCN(S(=O)(=O)/C=C/c2ccccc2)CC1 | 9.37
